B1: tRNA (parent)
chain: CUCUCGGUAGCCAAGUUGGUUUAAGGCGCAAGACUUUAAUUUAUCACUACGAAAUCUUGAGAUCGGGCGUUCGACUCGCCCCCGGGAGAUUUUUUCCUCGAGCAA

Variants at the floor of the assay are shown more often than the library holds them.

In the series the parent is B1. The series is described as follows: nonsense suppression (GFP-seq) (ratio to wild type); higher = more function; SUP4oc tRNA, yeast GFP reporter sort-seq. A digest of the protocol: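 Nonsense suppression (GFPSEQ) is the median GFP/RFP ratio of each sorting bin, weighted by the variant's estimated share of cells in that bin and expressed relative to the unmutated parent tRNA. Yeast strains carried genome-integrated variants of an ochre-suppressor tRNA from a library with ~3% random mutations, plus a galactose-driven GFP ochre reporter and RFP, and were grown in raffinose/galactose medium containing 80 mg/L adenine. Cells were sorted into GFP/RFP bins, each bin was Illumina-sequenced (phred ≥30), and variants were kept only with ≥100 reads and ≥30 cells.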
G25U G26U: the nonsense suppression was at most 0.026.
Under C79G C80U G86A stands at most 0.026.
Under A30C G69C C83G stands at most 0.026; under U58G U63C, at most 0.026.
Under C3A A14U U17A A62U stands at most 0.026; under U2G G6U G10U, at most 0.026.
Take G18C U55C: the nonsense suppression was at most 0.026.
As for A24U G59U A74G C80U, the figure is at most 0.026; as for C34U A54G U63G, at most 0.026; as for A33U A54G U76G, at most 0.026.
As for G10U C34G U55G, the figure is at most 0.026; as for U4G A23C, at most 0.026; as for A23U A33C, at most 0.026.
Under C12G C64A stands at most 0.026; under G15U A30G U70A U71G A89C, at most 0.026.
With C12U C56G, the nonsense suppression was at most 0.026.
With G32A A60U, the nonsense suppression is at most 0.026.
Under U4C U20C G86U stands at most 0.026; under U21G A30U C83U, at most 0.026.
Under G15U A30C G78C stands at most 0.026; under A13U G59U C80G, at most 0.026; under U16A G65C, at most 0.026.
As for A13C A87U, the figure is at most 0.026; as for C34G G73U C75U C77A, at most 0.026.
For the variant C1U U17A G32U, the nonsense suppression was at most 0.026.
As for A33G U71G, the figure is at most 0.026; as for C56G U63C G66U, at most 0.026.
As for C27A U55A A60G G66C, the figure is at most 0.026.
As for A13C G26C G78U, the nonsense suppression was at most 0.026.
On to A54C U63C C64U, for which the nonsense suppression was at most 0.026.
Under G15U U16A G59C G66C U70A C82G stands at most 0.026.
As for G19C A23C C56G G85U, the figure is at most 0.026.
Regarding C1U G6U U55G, the nonsense suppression was at most 0.026.
Under C3A A24G G32C A89U stands at most 0.026.
As for U20G A24C G61A A87U, the figure is at most 0.026.
Under A30U C64U stands at most 0.026.
As for G15C A23G G66A, the nonsense suppression is at most 0.026.
Regarding A14U C56U G85A, the nonsense suppression was at most 0.026.
Consider A33U G61U G88C, for which the nonsense suppression was at most 0.026.
As for G15U U17A U76A C83A, the figure is at most 0.026; as for C1U A31C A87U, at most 0.026; as for C12U C81G, at most 0.026.
As for U21A A30C C34G, the figure is at most 0.026; as for G6U A74C, at most 0.026.
Under A9C G59A U63C stands at most 0.026; under G7U G18A, at most 0.026.
For the variant C27U U35C G61U, the nonsense suppression was at most 0.026.
As for G26C G59A, the figure is at most 0.026.
As for G73C G85C A89G, the figure is at most 0.026.
A60U C79U: the nonsense suppression came to 0.761.
Under U4G C72U stands at most 0.026; under G15C G65C, at most 0.026; under A14C G67U U70C, at most 0.026.
As for G78C G85U, the figure is 0.232; as for C34A A62U, at most 0.026.
As for A23C G73A, the figure is at most 0.026; as for A31U U58G A62U G65U A74U, at most 0.026.
Regarding A9G C27G C83G, the nonsense suppression was at most 0.026.
Consider U20C G65U G66C, for which the nonsense suppression is at most 0.026.
Under C29U A30G G65C U71C stands at most 0.026; under U21C C72G A89U, at most 0.026.
Under A9U U71G G84U stands at most 0.026; under U20C U57C U58G G61C, at most 0.026; under A54U G69C C81G, at most 0.026.
Under A14C U63G A87C stands at most 0.026; under U17C G28C G85U, at most 0.026; under U20G G61C, 0.615.
Take G59A C82U: the nonsense suppression is at most 0.026.
As for C1U U2A C3A A14G A54G C56G, the figure is at most 0.026; as for A13G U17A A24U A31U G61U, at most 0.026; as for A33G U57C, at most 0.026.
As for C1A C11A G78A G85C, the figure is at most 0.026; as for U35G C68U, at most 0.026; as for A23G C64A G66U G86A, at most 0.026.
Under A14G C68G G88A stands at most 0.026.
Consider A23G C29A G61A, for which the nonsense suppression was at most 0.026.
Regarding A33C U57G, the nonsense suppression was at most 0.026.
As for C3A A9U A60U U76A C79G, the figure is at most 0.026.
Under U20G A31C stands at most 0.026.
Turning to C80U C83G, the nonsense suppression was at most 0.026.
For the variant C12U G78U, the nonsense suppression turned out to be 0.0326.
Take U35A A60C: the nonsense suppression was at most 0.026.
In the case of A30C G86U, the nonsense suppression was at most 0.026.
As for A31U U58C U63A G73A, the figure is at most 0.026; as for A23U A30U, 0.0282; as for A31C C64U C68G, at most 0.026.
As for G61U C64A C81A, the figure is at most 0.026; as for U8C A30C G65A U71G G86C, at most 0.026; as for U17C U63A, 0.197.
Under A31U U63G stands 0.0763.
In the case of G15A C29A G32U, the nonsense suppression is at most 0.026.
Regarding G10C G15U A33U, the nonsense suppression was at most 0.026.
Under U2G U76C C79A stands at most 0.026.
As for G7C U8A, the figure is at most 0.026; as for G18U A23C A33G C75U, at most 0.026; as for C3G U58C G61A U71C G86C, at most 0.026.
As for A24U G26C G67A G84C, the figure is at most 0.026.
Take C5U G67A: the nonsense suppression was at most 0.026.
As for G15U G67U, the figure is at most 0.026; as for U21A U22G A24U C68G U76A C81A, at most 0.026; as for C27U G59A C79G G85C, at most 0.026.
Under U2C C27A C82U stands at most 0.026; under G6A G67A, at most 0.026; under G10A G18U, at most 0.026.
Turning to A62U C68G G85A, the nonsense suppression was at most 0.026.
Under A14U C27U G61C stands at most 0.026.
As for U4C G61A, the figure is 1.25; as for A9C G65C, at most 0.026.
Take C3U U20C A74U: the nonsense suppression is at most 0.026.
As for C56A U71G, the nonsense suppression is at most 0.026.
Under G25C G32C U57C stands at most 0.026; under A60G U70C, at most 0.026.
Take C12U U55A: the nonsense suppression is at most 0.026.
As for G28U U35G, the figure is at most 0.026; as for G7C U55C G86U, at most 0.026.
As for A31G C34G G69C, the figure is at most 0.026; as for G67A U70C C81G, at most 0.026; as for U63G U76A G88C, at most 0.026.
U2A U57A A62G G67U: the nonsense suppression was at most 0.026.
As for A14G U20G C34U C64U, the nonsense suppression is at most 0.026.
Under C5U U16G A30G stands at most 0.026.
With C3U C34G G69A, the nonsense suppression is at most 0.026.
Under G26A G59A G73U stands at most 0.026; under U8G G66C G73A, at most 0.026.
As for G19C A60G, the figure is at most 0.026; as for C12U G19A G88C, at most 0.026.
With C12A U35A A54G U63A G66A, the nonsense suppression is at most 0.026.
Under C34U U63A stands at most 0.026; under U35G G86U, at most 0.026.
Under G32C A62G C82A stands at most 0.026; under U21A A54C G61A, 0.215; under G15A G65C, at most 0.026.
On to C12A G25C A30C A62U, for which the nonsense suppression was at most 0.026.
As for A24U C80U, the figure is 0.192.
Under A30U U57A G86C stands at most 0.026; under G18U G28C C80U A87G, at most 0.026.
As for A9U G18A G85C, the figure is at most 0.026; as for U20C U21G C27U G84C, at most 0.026.
For the variant G26A G65A, the nonsense suppression is at most 0.026.
As for C1U U55A, the figure is at most 0.026.
Under G66U C79U G86A stands at most 0.026; under C27A G28U A60C G73U, at most 0.026; under U35A A62C G88C, at most 0.026.
Take G69C C75G: the nonsense suppression is at most 0.026.
U17A G32A G78C: the nonsense suppression was at most 0.026.
As for A9G A30C C34G G88A, the figure is at most 0.026; as for C1U G26U G73A, at most 0.026; as for U2A A33G, at most 0.026.
As for G7A C56G, the figure is at most 0.026.
As for U2G G86C, the figure is at most 0.026; as for G6A G66U C75U, at most 0.026.
With U2A A24U U35A G59A G69C, the nonsense suppression was at most 0.026.
For the variant U21G U71C, the nonsense suppression is 0.0265.
Under C11G G25U G61A stands at most 0.026; under G6U A60G G67U, at most 0.026.
Under U20A G65C G69C G73A C75G stands at most 0.026; under A24C A74C, 0.0915; under A33U U70C, at most 0.026.
Under C27A G66A U76C stands at most 0.026; under G15C G69A G78C, at most 0.026.
Turning to U8G U22G C77G, the nonsense suppression was at most 0.026.
Under A9G U20C A23G G66A stands at most 0.026.
As for A31U U55G G67C, the figure is at most 0.026; as for C1G G61A G78U A87C, at most 0.026.
As for G15C U57C, the figure is at most 0.026; as for U22G A54C G66C, at most 0.026.
As to G18U C56U C75A G88A, the nonsense suppression is at most 0.026.

The record behind these values is the RNAGym collection of RNA variant scans (doi:10.1101/gad.245936.114).
